The text below walks through data of the BET-seq Pho4 binding data (Le et al. 2018).

The list shows a part of the results. Values were computed here from the reads of four pooled replicates and scatter widely.

The test addresses T1, Pho4 (S. cerevisiae) (UniProt P07270).
T1 sequence: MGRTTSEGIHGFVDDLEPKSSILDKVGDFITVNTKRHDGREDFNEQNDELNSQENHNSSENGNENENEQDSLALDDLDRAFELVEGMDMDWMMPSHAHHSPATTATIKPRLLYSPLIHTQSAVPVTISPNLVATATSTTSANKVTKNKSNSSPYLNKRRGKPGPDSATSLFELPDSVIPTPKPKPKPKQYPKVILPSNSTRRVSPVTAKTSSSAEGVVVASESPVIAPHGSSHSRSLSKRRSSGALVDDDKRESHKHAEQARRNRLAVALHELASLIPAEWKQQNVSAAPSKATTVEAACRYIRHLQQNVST
As to the kind of experiment: relative binding free energy (BET-seq); higher = weaker binding. Particulars: reference: library average.
For CAAGGCACGTGGAGGG, the “relative binding free energy” value is -0.23 kcal/mol. Under ATATTCACGTGTGCTA stands 0.24 kcal/mol.

On to GTTGACACGTGGGCAT, for which the “relative binding free energy” value was -0.14 kcal/mol. The value for TTTCGCACGTGATATT was 0.07 kcal/mol; that for AGGAGCACGTGTTTAT was -0.09 kcal/mol; that for AAGGGCACGTGGAGAG was -0.1 kcal/mol. Regarding CGGTCCACGTGTAGGG, the “relative binding free energy” value is 0.08 kcal/mol. The value for GCGTACACGTGGAGGT was 0.08 kcal/mol. The value for GTTGGCACGTGGTGAC was -0.04 kcal/mol; that for GTCGGCACGTGAGGGG was 0.22 kcal/mol.

On to TGGTTCACGTGTGACA, for which the “relative binding free energy” value came out at 0.17 kcal/mol. Under TTTGCCACGTGGTCTG stands -0.16 kcal/mol.

In the case of AAATGCACGTGGAGGT, the “relative binding free energy” value is -0.16 kcal/mol.

For GGAATCACGTGAATGG, the “relative binding free energy” value came to 0.38 kcal/mol. The value for GTGCGCACGTGCTGGG was -0.22 kcal/mol; that for GTTTGCACGTGTAGCA was 0.01 kcal/mol; that for TACTGCACGTGTATTA was 0.03 kcal/mol. Under AATTACACGTGTGAAG stands 0.06 kcal/mol; under TTTGGCACGTGAGTCT, 0.19 kcal/mol. Under TTGGGCACGTGGGGTG stands -0.2 kcal/mol; under TGTGGCACGTGTAGCG, 0.04 kcal/mol. TTATGCACGTGGTGCG: the “relative binding free energy” value is -0.16 kcal/mol. Under AAGGTCACGTGATGCG stands 0.22 kcal/mol. The value for GGGATCACGTGTAGTA was 0.26 kcal/mol. Under TGGTTCACGTGGCGGC stands 0.15 kcal/mol. Consider AAGTGCACGTGTGTCT, for which the “relative binding free energy” value is -0.09 kcal/mol. In the case of TAGTACACGTGTAGGG, the “relative binding free energy” value is 0.19 kcal/mol.

GTGTACACGTGTCATT: the “relative binding free energy” value turned out to be 0.03 kcal/mol. The value for TTGGACACGTGGAGAA was 0.1 kcal/mol; that for TGCGACACGTGTTTGG was 0.05 kcal/mol. Under AGGTACACGTGGGGGA stands -0.18 kcal/mol; under ATTGCCACGTGGGTGC, -0.19 kcal/mol. For AAAGACACGTGTTGGG, the “relative binding free energy” value is -0.02 kcal/mol. The value for TGGTGCACGTGCCATG was -0.07 kcal/mol; that for GGGTCCACGTGCGTTT was 0.19 kcal/mol; that for TTTATCACGTGACGGA was 0.27 kcal/mol. Turning to TAGGGCACGTGGATAT, the “relative binding free energy” value was -0.12 kcal/mol. Under AGGCACACGTGGGGAG stands -0.07 kcal/mol; under CGTTCCACGTGTGGTA, 0.1 kcal/mol; under AATTACACGTGGTGGT, 0.13 kcal/mol. Under TATAGCACGTGGGTCA stands -0.22 kcal/mol; under CGGGACACGTGATGAG, 0.21 kcal/mol; under AGGTACACGTGCAGGG, 0.08 kcal/mol. The value for TGCGTCACGTGCGATG was 0.1 kcal/mol; that for GTCGGCACGTGCGGGT was -0.05 kcal/mol; that for ATCCGCACGTGTGGGT was 0.04 kcal/mol. With GATGCCACGTGGTGAG, the “relative binding free energy” value is -0.11 kcal/mol.

Turning to CTGTTCACGTGTTTCG, the “relative binding free energy” value was 0.35 kcal/mol.

In the case of TTGAGCACGTGGTTAA, the “relative binding free energy” value is -0.19 kcal/mol. Under GGGGACACGTGGCTAT stands -0.12 kcal/mol.

Regarding CGTGACACGTGAGGGA, the “relative binding free energy” value stood at 0.26 kcal/mol. The value for ATGGTCACGTGGGATG was 0.1 kcal/mol; that for GCGATCACGTGGGTTG was -0.03 kcal/mol; that for AAAGGCACGTGTAGTT was 0.01 kcal/mol. For GTCGGCACGTGTTACG, the “relative binding free energy” value is 0.1 kcal/mol.

Consider TGCCGCACGTGGTGGG, for which the “relative binding free energy” value is -0.14 kcal/mol. The value for ATAGGCACGTGGGTCG was -0.2 kcal/mol.

Consider TCGGCCACGTGTTGTG, for which the “relative binding free energy” value was -0.09 kcal/mol. Under TACGGCACGTGGCGGT stands -0.2 kcal/mol; under AGATACACGTGCAGTT, 0.22 kcal/mol; under TTAGTCACGTGATGTA, 0.18 kcal/mol. Under GTGTTCACGTGGAGGC stands 0.15 kcal/mol. The value for TTTGTCACGTGGGCTG was -0.03 kcal/mol. Turning to GAAGGCACGTGGGATT, the “relative binding free energy” value is -0.05 kcal/mol.

Regarding GGGAACACGTGGTAGC, the “relative binding free energy” value was 0.13 kcal/mol.

As to AGCGTCACGTGTGAAG, the “relative binding free energy” value was 0.08 kcal/mol. The value for TATTCCACGTGTGTTA was 0.07 kcal/mol; that for TGATGCACGTGAAGGG was 0.27 kcal/mol; that for GGTAACACGTGGGGCG was -0.01 kcal/mol. Under CGTGTCACGTGGCGGA stands 0.06 kcal/mol. The value for AGTGGCACGTGATTCG was 0.05 kcal/mol. As for AACGTCACGTGGTTGT, the “relative binding free energy” value amounted to 0.06 kcal/mol.

Turning to ATTGACACGTGGTGCA, the “relative binding free energy” value is -0.14 kcal/mol.

In the case of AGGGACACGTGTGGGG, the “relative binding free energy” value worked out at 0.05 kcal/mol. Under AGGGGCACGTGCTTGT stands -0.17 kcal/mol. Under TCGTGCACGTGCTTGG stands -0.13 kcal/mol; under CGTAACACGTGTGGTA, -0.03 kcal/mol. The value for TGAAACACGTGATATG was 0.18 kcal/mol; that for AAATTCACGTGTTTTT was 0.3 kcal/mol; that for GGGTTCACGTGGTCGA was 0.16 kcal/mol. With TTGTGCACGTGCTTAT, the “relative binding free energy” value worked out at 0.02 kcal/mol. Under AGTATCACGTGGTCGA stands 0.15 kcal/mol.

Consider ATTTTCACGTGCTGGG, for which the “relative binding free energy” value stood at 0.31 kcal/mol. Take GAGGGCACGTGTTCTG: the “relative binding free energy” value was -0.07 kcal/mol. The value for GTATGCACGTGGTTGT was -0.04 kcal/mol; that for TTAGTCACGTGTAGCA was 0.12 kcal/mol.

TTGGGCACGTGTGTTT: the “relative binding free energy” value came to 0.09 kcal/mol. Under TTTTTCACGTGCCTGG stands 0.25 kcal/mol; under GTTTACACGTGAGGGT, 0.3 kcal/mol.

As to AGAGTCACGTGATTTA, the “relative binding free energy” value amounted to 0.11 kcal/mol. Under GATAGCACGTGTTGAT stands -0.08 kcal/mol. Under TGTTCCACGTGGGTGA stands -0.02 kcal/mol; under CGTGACACGTGGGATT, -0.07 kcal/mol.

As to CTGTTCACGTGTCTTT, the “relative binding free energy” value turned out to be 0.22 kcal/mol. The value for CGAGGCACGTGGGACG was -0.11 kcal/mol; that for CCTGGCACGTGTTGTG was -0.02 kcal/mol; that for AGGCTCACGTGGTTAG was 0.3 kcal/mol. For AGTGTCACGTGGGAAC, the “relative binding free energy” value came out at 0.05 kcal/mol. The value for GTCTGCACGTGAGAGG was 0.29 kcal/mol. Under AATAGCACGTGCGTTG stands -0.05 kcal/mol; under GGCTTCACGTGTTTGT, 0.3 kcal/mol. Regarding GCTTTCACGTGGTCGT, the “relative binding free energy” value stood at 0.24 kcal/mol.

As for GAAAACACGTGGAGTG, the “relative binding free energy” value turned out to be 0.03 kcal/mol.

GAATTCACGTGTCGTG: the “relative binding free energy” value turned out to be 0.24 kcal/mol. With TATGGCACGTGCACGG, the “relative binding free energy” value was -0.24 kcal/mol. Under TGGCGCACGTGGGTGC stands -0.27 kcal/mol; under GGGGGCACGTGAGTTA, 0.08 kcal/mol; under GTTTTCACGTGGCGGG, 0.21 kcal/mol. The value for TAAGTCACGTGTGTTA was 0.11 kcal/mol. The value for TGCGTCACGTGGGATA was -0.07 kcal/mol; that for TTGAACACGTGGTAAT was -0.15 kcal/mol; that for ACTGGCACGTGTTATG was -0.06 kcal/mol. For ATGAGCACGTGGGCTT, the “relative binding free energy” value is -0.17 kcal/mol.

In the case of CAGGTCACGTGAGGTG, the “relative binding free energy” value amounted to 0.27 kcal/mol. The value for CGTATCACGTGGTGAT was 0.1 kcal/mol.
